{"source": "patent US8604085B2", "about": "“Bupropion hydrobromide polymorphs” (Valeant International Bermuda, priority 2008, dated 2013)", "assay": "TGA and DSC characterization", "type": "physicochemical", "settings": "successive thermal events listed per polymorph", "description": "The PXRD diffraction patterns were obtained on X-ray powder diffraction PANalytical X′pert Pro equipped with X′Celerator, in a measurement range between 3 and 40 2 theta. All the DSC experiments were performed with a DSC 7 Perkin Elmer instrument in a temperature range between 25° C. and 250° C. with a heating rate of 10° C./min.\nAll the TGA experiments were conducted with a TGA 7 Perkin Elmer instrument in a temperature range between 39° C. and 310° C. with a heating rate of 10° C./min.\nPXRD, DSC, TGA and IR analyses were obtained for Bupropion Hydrobromide Polymorph Form I, Form II, Form III, Form IV, Form V, Form VI, and Form VII. PXRD analyses were obtained for the amorphous form. With respect to the PXRD analyses, the Peak List is shown for Form I, Form II, Form III, Form IV, Form V, Form VI, Form VII and the amorphous form in Table 56, Table 57, Table 58, Table 59, Table 60, Table 61, Table 62 and Table 63 respectively.", "note": "Some values that stand alone complete this part of the results."}
{"smiles": "Br.CC(NC(C)(C)C)C(=O)c1cccc(Cl)c1", "note": "(single isomer, unassigned) [Form II]", "values": [{"measurement": "DSC (onset ° C.)", "setting": "first DSC thermal event", "result": 194.20, "unit": "°C"}, {"measurement": "DSC (onset ° C.)", "setting": "second DSC thermal event", "result": 236.65, "unit": "°C"}]}
{"smiles": "Br.CC(NC(C)(C)C)C(=O)c1cccc(Cl)c1", "note": "(stereo not shown) [Form IV]", "values": [{"measurement": "DSC (onset ° C.)", "setting": "first DSC thermal event", "result": 149.89, "unit": "°C"}, {"measurement": "DSC (onset ° C.)", "setting": "second DSC thermal event", "result": 233.14, "unit": "°C"}]}
